The other results are listed elsewhere or left out. Single values are uncertain, as repeats are few or missing.
Legend:
Experiment in all cases: cell count relative to DMSO control; melanoma cells; higher = more viable cells
Settings in all cases: library dose: standard library concentration; 72 h
G361 = system: G361
IPC-298 = system: IPC-298
IST-MEL1 = system: IST-MEL1
LB2518-MEL = system: LB2518-MEL
LOXIMVI = system: LOXIMVI
MEL-HO = system: MEL-HO
MZ2-MEL = system: MZ2-MEL
MeWo = system: MeWo
RPMI7951 = system: RPMI7951
RVH-421 = system: RVH-421
SkMel28 = system: SkMel28
SkMel2 = system: SkMel2
SkMel30 = system: SkMel30
SkMel5 = system: SkMel5
UACC257 = system: UACC257
UACC62 = system: UACC62
WM115 = system: WM115
WM1716 = system: WM1716
WM3526 = system: WM3526
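Further: cells treated in 1,536-well plates, then fixed and DAPI-stained, with nuclei counted from automated high-throughput microscope images.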

Compound | cell count (G361) [%] | cell count (IPC-298) [%] | cell count (IST-MEL1) [%] | cell count (LB2518-MEL) [%] | cell count (LOXIMVI) [%] | cell count (MEL-HO) [%] | cell count (MZ2-MEL) [%] | cell count (MeWo) [%] | cell count (RPMI7951) [%] | cell count (RVH-421) [%] | cell count (SkMel28) [%] | cell count (SkMel2) [%] | cell count (SkMel30) [%] | cell count (SkMel5) [%] | cell count (UACC257) [%] | cell count (UACC62) [%] | cell count (WM115) [%] | cell count (WM1716) [%] | cell count (WM3526) [%]
C[C@@H](N)c1ccc(C(=O)Nc2ccnc3[nH]ccc23)cc1 + O=C(Oc1ccc([N+](=O)[O-])cc1)N1CCC(C(O)(c2ccc3c(c2)OCO3)c2ccc3c(c2)OCO3)CC1 [JZL184] (first compound 2 µM, partner dose 5 µM) | 94 | 111 | 88.1 | 127 | 96.4 | 77.4 | 57.8 | 66.5 | 53.4 | 61.6 | 76.1 | 89.5 | 106 | 54.3 | 71.1 | 61.1 | 90.5 | 61.5 | 82.5
CC(=O)O[C@@]12CO[C@@H]1C[C@H](O)[C@@]1(C)C(=O)[C@H](O)C3=C(C)[C@@H](OC(=O)[C@H](O)[C@@H](NC(=O)OC(C)(C)C)c4ccccc4)C[C@@](O)([C@@H](OC(=O)c4ccccc4)[C@H]21)C3(C)C [Docetaxel] + O=C(Oc1ccc([N+](=O)[O-])cc1)N1CCC(C(O)(c2ccc3c(c2)OCO3)c2ccc3c(c2)OCO3)CC1 [JZL184] (first compound 0.0005 µM, partner dose 5 µM) | 19 | 38.7 | 42.3 | 51 | 39.3 | 40.6 | 44.6 | 22.7 | 33.2 | 48.4 | 13.8 | 20 | 35.9 | 37 | 59 | 36.8 | 38.7 | 32.7 | 31.3
NC(=O)c1ccc(N(C(N)=O)c2c(F)cccc2F)nc1-c1ccc(F)cc1F + Cc1cc(SCc2sc(-c3ccc(C(F)(F)F)c(F)c3)nc2C)ccc1OCC(=O)O [GW0742] (first compound 2 µM, partner dose 10 µM) | 90.8 | 89.5 | 89.6 | 94.3 | 107 | 92.5 | 98.4 | 93.6 | 111 | 102 | 78.7 | 78.9 | 87.2 | 104 | 96 | 80.7 | 111 | 105 | 94.3
C=CCNC1=C2C[C@@H](C)C[C@H](OC)[C@H](O)[C@@H](C)/C=C(\C)[C@H](OC(N)=O)[C@@H](OC)/C=C\C=C(/C)C(=O)NC(=CC1=O)C2=O [Tanespimycin] + C/C(O)=C(\C#N)C(=O)Nc1cc(Br)ccc1Br [LFM-A13] (first compound 0.01 µM, partner dose 10 µM) | 94.2 | 90 | 73.6 | 86.4 | 116 | 82.9 | 95.9 | 91.1 | 36.9 | 114 | 73.3 | 84.9 | 97.3 | 72.6 | 102 | 71.4 | 34.3 | 87.3 | 105
O=C(Nc1cc(C(F)(F)F)cc(C(F)(F)F)c1)c1cc(Cl)ccc1O + O=C(Oc1ccc([N+](=O)[O-])cc1)N1CCC(C(O)(c2ccc3c(c2)OCO3)c2ccc3c(c2)OCO3)CC1 [JZL184] (first compound 0.08 µM, partner dose 5 µM) | 93.1 | 99.5 | 97.5 | 123 | 107 | 101 | 94.4 | 83.2 | 92.2 | 105 | 82.4 | 83.9 | 88.4 | 76.5 | 83.9 | 65.4 | 93.1 | 86.4 | 80.6
Cc1cc(Nc2cc(N3CCN(C)CC3)nc(/C=C/c3ccccc3)n2)n[nH]1 + O=C(Oc1ccc([N+](=O)[O-])cc1)N1CCC(C(O)(c2ccc3c(c2)OCO3)c2ccc3c(c2)OCO3)CC1 [JZL184] (first compound 0.2 µM, partner dose 5 µM) | 83.3 | 93.9 | 82.2 | 91.8 | 80.4 | 90.4 | 114 | 74.9 | 60.2 | 88.4 | 69.6 | 78.5 | 120 | 79.2 | 92.7 | 68.2 | 72.7 | 79.6 | 65.2
OCc1c[nH]c2ccccc12 [Indole-3-carbinol] + O=C(Oc1ccc([N+](=O)[O-])cc1)N1CCC(C(O)(c2ccc3c(c2)OCO3)c2ccc3c(c2)OCO3)CC1 [JZL184] (first compound 4 µM, partner dose 5 µM) | 92.7 | 99.9 | 97.6 | 109 | 89.8 | 98.5 | 97.1 | 110 | 91.2 | 97.2 | 101 | 100 | 120 | 84.6 | 83.4 | 78.9 | 94.9 | 89.1 | 89.6
OCc1c[nH]c2ccccc12 [Indole-3-carbinol] + Cc1cc(SCc2sc(-c3ccc(C(F)(F)F)c(F)c3)nc2C)ccc1OCC(=O)O [GW0742] (first compound 4 µM, partner dose 10 µM) | 110 | 108 | 99.9 | 98.5 | 93 | 92.3 | 109 | 112 | 105 | 93.8 | 96.6 | 117 | 149 | 123 | 109 | 106 | 94.4 | 104 | 112
O=c1[nH]nc(Sc2ncc([N+](=O)[O-])s2)n1-c1ccc2c(c1)OCCO2 + C/C(O)=C(\C#N)C(=O)Nc1cc(Br)ccc1Br [LFM-A13] (first compound 1 µM, partner dose 10 µM) | 113 | 82.4 | 99.8 | 106 | 75.1 | 105 | 92.5 | 81.4 | 78.4 | 91.1 | 91 | 97 | 101 | 91.1 | 110 | 78.5 | 81.3 | 91.9 | 112
O=C(/C=C/c1cccnc1)NCCCCC1CCN(C(=O)c2ccccc2)CC1 + C/C(O)=C(\C#N)C(=O)Nc1cc(Br)ccc1Br [LFM-A13] (first compound 0.05 µM, partner dose 10 µM) | 3.75 | 33.7 | 46.3 | 61.9 | 65.4 | 43.3 | 33.6 | 92.4 | 103 | 50.2 | 67 | 26.1 | 92.2 | 90.5 | 88.4 | 73 | 98.4 | 85.2 | 76.2
COc1cc([C@@H]2c3cc4c(cc3[C@@H](O[C@@H]3O[C@@H]5CO[C@@H](C)O[C@H]5[C@H](O)[C@H]3O)[C@H]3COC(=O)[C@H]23)OCO4)cc(OC)c1O [etoposide] + Cc1cc(SCc2sc(-c3ccc(C(F)(F)F)c(F)c3)nc2C)ccc1OCC(=O)O [GW0742] (first compound 0.1 µM, partner dose 10 µM) | 88.1 | 83.7 | 95.7 | 88.2 | 84.8 | 96.9 | 85.2 | 77.1 | 89.2 | 97.5 | 71.5 | 60.5 | 103 | 89.8 | 83.7 | 64.3 | 77 | 60 | 108
NC(=O)c1ccc(N(C(N)=O)c2c(F)cccc2F)nc1-c1ccc(F)cc1F + O=C(Oc1ccc([N+](=O)[O-])cc1)N1CCC(C(O)(c2ccc3c(c2)OCO3)c2ccc3c(c2)OCO3)CC1 [JZL184] (first compound 2 µM, partner dose 5 µM) | 108 | 109 | 94.4 | 135 | 189 | 98.4 | 108 | 101 | 88 | 82.5 | 73.4 | 90.1 | 100 | 99.5 | 91.5 | 68.2 | 67.4 | 106 | 81
N#CC[C@H](C1CCCC1)n1cc(-c2ncnc3[nH]ccc23)cn1 [ruxolitinib] + O=C(Oc1ccc([N+](=O)[O-])cc1)N1CCC(C(O)(c2ccc3c(c2)OCO3)c2ccc3c(c2)OCO3)CC1 [JZL184] (first compound 5 µM, partner dose 5 µM) | 76.2 | 90 | 92.8 | 134 | 113 | 85.4 | 92.7 | 91.2 | 90.8 | 86.8 | 132 | 98.8 | 116 | 54.3 | 106 | 77 | 91 | 82.8 | 101
CCCCCCCCCCCCCCCCCCOP(=O)([O-])OC1CC[N+](C)(C)CC1 [Perifosine] + O=C(Oc1ccc([N+](=O)[O-])cc1)N1CCC(C(O)(c2ccc3c(c2)OCO3)c2ccc3c(c2)OCO3)CC1 [JZL184] (first compound 2 µM, partner dose 5 µM) | 110 | 121 | 93.7 | 156 | 110 | 109 | 113 | 100 | 31.5 | 109 | 117 | 93.9 | 93 | 115 | 121 | 103 | 100 | 88.1 | 74.6
CN(c1ncccc1CNc1nc(Nc2ccc3c(c2)CC(=O)N3)ncc1C(F)(F)F)S(C)(=O)=O + C/C(O)=C(\C#N)C(=O)Nc1cc(Br)ccc1Br [LFM-A13] (first compound 0.4 µM, partner dose 10 µM) | 76.5 | 86.3 | 82.3 | 86.8 | 60.8 | 74.2 | 83.6 | 81.8 | 54.6 | 73.5 | 65.9 | 73.1 | 103 | 54.5 | 82.3 | 76.3 | 81.4 | 83.7 | 83.5
CC(=O)O[C@@]12CO[C@@H]1C[C@H](O)[C@@]1(C)C(=O)[C@H](O)C3=C(C)[C@@H](OC(=O)[C@H](O)[C@@H](NC(=O)OC(C)(C)C)c4ccccc4)C[C@@](O)([C@@H](OC(=O)c4ccccc4)[C@H]21)C3(C)C [Docetaxel] + C/C(O)=C(\C#N)C(=O)Nc1cc(Br)ccc1Br [LFM-A13] (first compound 0.0005 µM, partner dose 10 µM) | 21.1 | 48 | 47.2 | 43.9 | 79.9 | 51.5 | 49 | 26.4 | 35.2 | 71.4 | 26.6 | 26.4 | 52.5 | 34.4 | 61.8 | 65.9 | 35.6 | 44 | 55

— the supplement of paper PMC4604168 (melanoma cell lines)
